This is one part of the list.

The source of these data is the supplement of paper PMC8728848.

Holding throughout (experiment): glycan array binding signal (z-score within array); higher = stronger binding
What all share (settings): glycan notation: IUPAC condensed, linker removed

The target in assay [1] is Neu5Ac(a2-8)Neu5Ac(a2-3)[GalNAc(b1-4)]Gal(b1-4)Glc. In outline:
(§1)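 Glycan array data were curated from 3228 arrays in the Consortium for Functional Glycomics database and kept only where the protein sequence was available. Glycan names were converted to IUPAC-condensed notation, and columns mapping to the same glycan were averaged. The binding signal is a within-array Z-score, averaged across arrays of the same protein sequence at different concentrations or buffers and across linkers. Negative Z-scores can be read as non-binding.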

Assay [2] deals with Neu5Ac(a2-8)Neu5Ac(a2-8)Neu5Ac. Summed up:
as §1

The target of assay [3] is Neu5Ac(a2-8)Neu5Ac(a2-8)Neu5Ac(a2-3)Gal(b1-4)Glc. Summed up:
as §1

In assay [4] the target is Neu5Ac(a2-8)Neu5Ac(a2-8)Neu5Ac(a2-3)[GalNAc(b1-4)]Gal(b1-4)Glc. Summed up:
as §1

In assay [5] the target is Neu5Ac(a2-8)Neu5Ac(a2-8)Neu5Ac(a2-8)Neu5Ac(a2-3)[GalNAc(b1-4)]Gal(b1-4)Glc. Summed up: as §1
The target of assay [6] is Neu5Ac(b1-6)GalNAc. Summed up: as §1
For assay [7], the target named is Neu5Ac(b2-6)Gal(b1-4)GlcNAc. In outline:
as §1

Assay [8] has as its target Neu5Ac9Ac(a2-6)Gal(b1-4)GlcNAc. Summed up: as §1
Assay [9] concerns the target Neu5Gc(a2-3)Gal(b1-3)GlcNAc. Summed up: as §1
For assay [10], the target named is Neu5Gc(a2-3)Gal(b1-3)[Fuc(a1-4)]GlcNAc. Summed up:
as §1

For assay [11], the target named is Neu5Gc(a2-3)Gal(b1-4)Glc. Summed up: as §1
Assay [12] has as its target Neu5Gc(a2-3)Gal(b1-4)GlcNAc. In outline:
as §1

The target in assay [13] is Neu5Gc(a2-3)Gal(b1-4)[Fuc(a1-3)]GlcNAc. Summed up:
as §1

Assay [14] concerns the target Neu5Gc(a2-6)Gal(b1-4)GlcNAc. In outline:
as §1

Assay [15] concerns the target Neu5Gc(a2-6)GalNAc. Summed up:
as §1

B1: FaeGac (Escherichia coli) (protein)
chain: WMTGDFNGSVDIGGSITADDYRQKWEWKVGTGLNGFGNVLNDLTNGGTKLTITVTGNKPILLGRTKEAFATPVTGGVDGIPHIAFTDYEGASVVLRKPDGETNKNGLAYFVLPMKNAGGTKVGSVKVNASYAGVLGRGGVTSADGELLSLFADGLSSIFYGGLPRGSELSAGSAAAARTKLFGSLSRDDILGQIQRVNANVTSLVDVAGSYRENMEYTDGNVVSAAYALGIANGQTIEATFNQAVTTSTQWSAPLNVAITYY
For the molecule B1, the “glycan array binding signal (z-score)” value in assay [1] was -0.17; in assay [2], -0.757; in assay [3], -0.867; in assay [4] it was 0.111; in assay [5], 0.001; in assay [6], -0.047. Besides, the “glycan array binding signal (z-score)” value was -0.584 in [7]; -0.815 in [8]; -0.826 in [9]; 0.009 in assay [10]; -0.761 in [11]; 0.173 in assay [12]. Further, the “glycan array binding signal (z-score)” value in assay [13] was -0.884; in assay [14], 0.117; in assay [15], 0.116.
